Laboratory results reported in the supplement of paper PMC3334620.
In all, about 33,000 sequences were measured (“E-score (-0.5 to 0.5)”: median about -0.053, highest 2% from about 0.37 on). Some of the results follow.

These sequences were tested against Hap1 (UniProt P0CE41) (assay: PBM E-score (8-mer binding enrichment) (E-score (-0.5 to 0.5)); higher = stronger / more preferred TF binding; most listed sequences are background and not binding sites). Conditions: protein concentration: 200 nM; construct: GST-DNA-binding domain.
Method in brief: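 PURExpress in vitro transcription/translation supplied GST-tagged yeast transcription factors, either full-length or DNA-binding domain. Applied at about 100-200 nM to universal all-10-mer Agilent arrays double-stranded by primer extension, the bound protein was detected with fluorescent anti-GST. E-scores, modified Wilcoxon-Mann-Whitney statistics, were given by the Universal PBM Analysis Suite to ungapped eight-base words pooled with their reverse complements after masliner normalisation.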

Sequence of UniProt P0CE41 (P0CE41 whole entry, the tested form may be a part): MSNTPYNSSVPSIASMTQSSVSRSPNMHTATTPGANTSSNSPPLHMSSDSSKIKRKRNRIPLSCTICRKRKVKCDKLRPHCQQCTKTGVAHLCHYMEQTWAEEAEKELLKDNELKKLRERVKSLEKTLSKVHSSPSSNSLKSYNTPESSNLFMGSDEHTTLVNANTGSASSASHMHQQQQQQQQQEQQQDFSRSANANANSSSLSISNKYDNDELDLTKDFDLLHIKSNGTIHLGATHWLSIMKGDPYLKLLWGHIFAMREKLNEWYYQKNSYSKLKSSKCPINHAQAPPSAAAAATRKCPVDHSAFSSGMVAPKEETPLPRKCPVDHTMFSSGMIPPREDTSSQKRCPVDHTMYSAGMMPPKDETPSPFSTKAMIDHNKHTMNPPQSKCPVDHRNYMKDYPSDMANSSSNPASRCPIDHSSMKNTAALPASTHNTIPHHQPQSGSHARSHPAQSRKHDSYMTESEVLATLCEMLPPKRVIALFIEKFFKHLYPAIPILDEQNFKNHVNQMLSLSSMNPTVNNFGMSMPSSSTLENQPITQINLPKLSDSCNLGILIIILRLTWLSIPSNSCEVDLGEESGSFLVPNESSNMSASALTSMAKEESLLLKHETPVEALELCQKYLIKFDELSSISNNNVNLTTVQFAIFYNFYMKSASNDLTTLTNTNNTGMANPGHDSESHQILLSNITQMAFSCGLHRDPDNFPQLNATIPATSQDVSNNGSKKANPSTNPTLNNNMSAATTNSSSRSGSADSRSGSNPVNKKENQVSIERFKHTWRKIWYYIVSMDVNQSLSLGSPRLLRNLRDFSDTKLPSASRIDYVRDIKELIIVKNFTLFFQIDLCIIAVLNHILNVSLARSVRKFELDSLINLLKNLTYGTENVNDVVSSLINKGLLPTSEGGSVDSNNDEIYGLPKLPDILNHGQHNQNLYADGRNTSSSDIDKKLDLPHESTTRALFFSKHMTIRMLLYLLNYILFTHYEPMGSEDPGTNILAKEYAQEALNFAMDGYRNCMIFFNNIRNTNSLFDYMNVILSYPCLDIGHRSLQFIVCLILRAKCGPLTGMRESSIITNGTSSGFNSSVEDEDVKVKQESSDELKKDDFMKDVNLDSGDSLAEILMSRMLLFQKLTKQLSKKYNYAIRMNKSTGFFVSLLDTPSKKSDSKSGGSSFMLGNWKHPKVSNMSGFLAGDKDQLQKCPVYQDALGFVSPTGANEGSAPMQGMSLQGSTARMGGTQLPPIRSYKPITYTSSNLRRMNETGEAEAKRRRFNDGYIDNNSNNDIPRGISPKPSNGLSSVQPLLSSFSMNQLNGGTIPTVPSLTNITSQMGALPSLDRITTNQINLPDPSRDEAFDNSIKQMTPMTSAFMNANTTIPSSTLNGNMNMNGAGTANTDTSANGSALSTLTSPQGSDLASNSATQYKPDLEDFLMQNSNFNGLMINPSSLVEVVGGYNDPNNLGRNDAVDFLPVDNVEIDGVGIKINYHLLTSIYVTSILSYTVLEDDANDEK

Point of comparison: ACTAGTGA, “PBM E-score” value -0.208. Against it:
- CCGCCGAA — higher, 0.38
- CTCGCCCC — higher, 0.0616
- TAGTAAGA — higher, -0.127
- ATAATAAG — higher, -0.0312
- CGGCGGTC — higher, 0.244
- CCTCACTC — higher, -0.143
- AGGCTAAC — higher, -0.16
- GTGTTGTA — higher, -0.157
- CAACACCC — higher, -0.172
- CAGTGTCC — higher, 0.0554
- CCACCTTA — higher, -0.00422
- GTCAGGAA — higher, -0.161
- ATAGCTTG — higher, -0.162
- ACGCTGAT — higher, -0.145
- AACCGGCT — higher, 0.252
- GTAAAATA — higher, -0.0903
- AATGAGCG — higher, 0.0776
- CGATATCC — higher, 0.375
- AATTGGTG — higher, -0.185
- GCGTCCAC — higher, 0.0208
- CGTATAAC — higher, 0.0381
- ACGGCGTC — higher, 0.141
- GCTTAAAA — higher, 0.00391
- CATTTCCA — higher, -0.0971
- ATACTGCC — higher, -0.0351
- CTCCATCC — higher, -0.0736
- GGTATGGA — higher, 0.03
- AACAACCA — higher, -0.195
- ACGCGTAG — higher, 0.138
- CATCACGG — higher, 0.107
- ATACAAGA — higher, -0.141
- GGATCTAC — higher, 0.00203
- AACTGACC — higher, 0.228
- CGATGTAA — higher, 0.0913
- CCCAATGA — lower, -0.257
- AAGGTGCT — higher, -0.0594
- TCGAAAGA — higher, -0.114
- CTAAGCAC — higher, -0.141
- GACTAGGC — higher, -0.178
- CCATCCTA — higher, -0.103
- CGGGCCAC — higher, 0.27
- TAGAATCA — higher, -0.0228
- ATTAACCC — higher, 0.25
- CTCCCTTA — higher, -0.068
- CCCATGTC — higher, -0.0857
- CACGGGAC — higher, 0.18
- GCCCAAGC — higher, 0.0262
- AATGCGAC — higher, 0.136
- GCAGCCGC — higher, 0.0279
- CTAAATTA — higher, -0.0489
- AGTAGCGC — higher, 0.0359
- GCTTGGAC — higher, -0.2
- GGTCGCCA — higher, 0.00282
- AAAACTTG — higher, -0.199
- CACTGTCC — higher, -0.0124
- CTGCAACC — lower, -0.215
- AACTGATA — higher, -0.105
- CATTTGAA — higher, 0.0136
- CTCTCCGC — higher, 0.0772
- CCCAGCCG — higher, 0.0905
- GTACTTTA — higher, -0.153
- GTTAGTTA — higher, 0.0774
- AATAGATG — higher, -0.118
- CGTGCTGC — higher, -0.049
- GCCGAGCC — higher, 0.346
- ACACTCGA — lower, -0.211
- ATGACCGA — higher, 0.378
- CTACCCGA — higher, 0.161
- AGAGGCGG — higher, -0.0563
- AAACTCTG — higher, -0.0642
- CGGGCACC — higher, 0.185
- AAAAGTTC — higher, 0.0472
- ATTTTCTA — higher, -0.124
- GGTACCAA — higher, 0.0294
- TAGTGAAA — lower, -0.218
- CGTACTAG — lower, -0.263
- GGACCTTA — higher, 0.245
- CCCTAGGC — higher, -0.148
- AGGGTCGG — higher, 0.111
- AGAGCACT — higher, -0.0757
- CGGGTATA — higher, 0.435
- CCCTTGCG — higher, -0.0607
- ATGCGTAA — higher, -0.0748
- TATACCCA — higher, -0.0183
- CGCAAGTC — higher, -0.0565
- AGTGTATC — higher, 0.0169
- AGTCCCCG — higher, 0.158
- AGTGAGAT — higher, -0.151
- AATTGATC — higher, -0.0111
- GAAACACC — higher, 0.0567
- CCGCTGGC — higher, -0.00858
- CATAAGGG — higher, 0.0768
- GCCCACTA — higher, -0.137
- AGCCTATA — higher, -0.133
- GGACCAGA — higher, 0.00068
- TAAGACCA — lower, -0.224
- ACATACGG — higher, 0.0295
- CTCCACCA — higher, -0.0486
- GGTCTAAA — higher, -0.0974
- GAAACAAC — higher, 0.115
- ACTTTCTA — lower, -0.242
- CGAGCTGC — higher, 0.175
- AAGCGACC — higher, 0.15
- TACAGGGA — higher, -0.00655
- CGTCGGAC — higher, 0.338
- AACGACCA — lower, -0.269
- GGGGGCTA — higher, 0.018
- AGAACTGG — higher, 0.0747
- GGAGGACA — higher, -0.00168
- ATGCTTCA — higher, -0.0826
- AATGGCAT — higher, 0.171
- AATACTGA — higher, -0.153
- AAAGGTGC — higher, -0.159
- GGGACTAA — higher, 0.0852
- AGCTGCTC — higher, -0.164
- CAGCTTAC — higher, -0.139
- ATCGTACC — higher, 0.0548
- AAGTCCAA — higher, -0.00743
- CACGCAAA — higher, -0.151
- AATTTCCA — higher, 0.0738
- GGTAGGCA — higher, -0.115
- AAAAGGGC — higher, -0.0943
- AGGTAGAA — higher, -0.15
- CGAGTTGA — higher, -0.0275
- GCACGGAA — higher, 0.215
- GCGCATCA — higher, -0.132
- ATTAATCG — higher, 0.218
- GTGGGGCA — higher, -0.112
- ATCACTTA — higher, -0.0963
- GGCTCTGA — lower, -0.241
- CTGTAGGC — higher, -0.194
- TCTCATCA — lower, -0.254
- CACGTTAC — lower, -0.216
- CTTACTTA — higher, -0.205
- GGTGTAAA — higher, -0.0035
- CTACACTA — lower, -0.32
- ATAGTTAC — higher, -0.0759
- ACAGGTCG — higher, -0.103
- AACCAACC — higher, -0.0552
- AATTGTGG — lower, -0.245
- GATTTAAC — higher, 0.338
- CTACGGCA — higher, 0.00463
- GTCGTTCA — lower, -0.247
- CCGGCCAA — higher, 0.261
- GGTTTCTA — higher, 0.118
- CTGTGTTA — higher, -0.0732
- ATTATCCA — higher, -0.0526
- ATGCCACC — higher, -0.135
- CGGCGAGA — higher, 0.287
- CTACATAC — higher, -0.114
- ATTATAGC — higher, 0.0053
- CCTGCATC — lower, -0.213
- AATGCCAG — higher, -0.0601
- ATGCGTAG — higher, -0.0444
- ACGATACT — higher, 0.0468
- CGCCAGCA — lower, -0.214
- TATATGCA — lower, -0.237
- CAACAACA — lower, -0.303
- GTAGTAGA — higher, -0.126
- CGGAGCAG — higher, 0.353
- ATGCCTCA — higher, 0.00397
- CAGTGGAC — higher, -0.115
- GCTGGCGA — higher, -0.0888
- AGTACGAA — higher, 0.0503
- TAGTCGAA — higher, -0.0985
- AACAGTCC — lower, -0.229
- AGATCGCA — higher, -0.116
- AGGAAGCG — higher, -0.0547
- ACGGACCT — higher, 0.344
- GGCGGGCA — higher, 0.109
- AGGCATCA — lower, -0.292
- CGAAGAGA — higher, 0.0447
- ACGCCCAG — higher, -0.174
- CGCCGACC — higher, 0.251
- CCGCACCC — higher, 0.209
- TCAGATAA — higher, -0.00666
- AGAAAGCT — higher, -0.049
- CCGCTAGA — higher, 0.0346
- GGGACTGA — higher, -0.127
- CTGGATGA — higher, -0.138
- AGAAGGTG — higher, 0.0485
- AGTAGGAG — lower, -0.236
- GGGGTAAA — higher, 0.00177
- GCACCCTA — lower, -0.223
- AATCCGTA — higher, 0.219
- AATCTTTC — higher, 0.0211
- GTATGAAC — higher, -0.0359
- AATCACTG — higher, 0.0378
- ACACTCGG — higher, 0.166
- GCTGGGAC — higher, -0.0902
- ATACACTG — higher, -0.179
- GACATACC — higher, 0.0629
- AAGACACT — higher, -0.128
- AGGTCTGG — higher, -0.0712
- ATATACCC — higher, 0.191
- ATGAGAAT — higher, -0.0856
- CGCGAGCG — higher, 0.104
- CTATACAG — higher, -0.201
- CGCACGAG — higher, 0.0104
- AGTTCTTA — higher, 0.0534
- GGTTATAC — higher, 0.126
- CACGTCTA — lower, -0.354
- CGGTGCGC — higher, 0.209
- CACTGCTC — higher, -0.104
- AAGTGCCA — higher, -0.112
- GTTGTGGA — higher, -0.0782
- CGAAAAAC — higher, 0.169
- GGATGCAA — higher, 0.0473
- CCCGTCCC — higher, 0.0345
- CGAGCATA — higher, -0.0516
- GTAACTGA — lower, -0.217
- CAAGGCTC — lower, -0.277
- AAACTGGA — higher, -0.0417
- CATTACAA — higher, -0.0558
- TCAACCGA — higher, 0.281
- CAGTATGG — higher, -0.175
- CGATCGTC — higher, 0.0887
- CAGCGTAA — higher, -0.0958
